{"source": "the supplement of paper PMC9446081", "note": "The campaign covered roughly 39,000 compounds. About 220 (0.56%) showed activity. This is one part of the list.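 Also: static incubation at 37 °C against the wild-type strain, values averaged over two biological replicates.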", "data": [{"tested_on": "Escherichia coli K-12 BW25113", "assay": "relative growth (OD600 normalised to plate interquartile mean) (fraction); higher = less growth inhibition, active = 0.2 or less", "settings": "50 µM; LB; incubation time: overnight (16-24 h)", "values": [{"smiles": "COc1ccc(CN(C)C[C@@H]2OCCCC[C@@H](C)Oc3ccc(NC(=O)NC(C)C)cc3C(=O)N([C@@H](C)CO)C[C@@H]2C)cc1", "relative growth": "inactive: 0.983"}, {"smiles": "COc1cccc(S(=O)(=O)N(C)C[C@@H]2Oc3ncc(Br)cc3C(=O)N([C@H](C)CO)C[C@@H]2C)c1", "relative growth": "inactive: 1"}, {"smiles": "Cc1ccc(S[C@]2(C(=O)NC3CC3)CC(=O)N(Cc3ccccc3C(F)(F)F)[C@@H]2c2ccc(CO)cc2I)cc1", "relative growth": "inactive: 0.998"}, {"smiles": "COc1ccc(N)cn1", "relative growth": "inactive: 1.02"}, {"smiles": "NCC1CCN(S(=O)(=O)C2CC2)CC1", "relative growth": "inactive: 0.996"}, {"smiles": "C[C@@H]1CN([C@H](C)CO)C(=O)c2cc(NC(=O)CCC(F)(F)F)ccc2O[C@@H](C)CCCCO[C@@H]1CN(C)Cc1ccc(C(F)(F)F)cc1", "relative growth": "inactive: 0.914"}, {"smiles": "C[C@H](CO)N1C[C@H](C)[C@@H](CN(C)S(=O)(=O)c2ccccc2)OCCCC[C@H](C)Oc2ccc(NC(=O)Nc3ccc(C(F)(F)F)cc3)cc2C1=O", "relative growth": "inactive: 0.994"}, {"smiles": "C[C@@H]1CN([C@H](C)CO)C(=O)c2cc(C#Cc3ccccn3)cnc2O[C@@H]1CN(C)C(=O)c1cnccn1", "relative growth": "inactive: 1.01"}, {"smiles": "Cn1cnc(CCNC(=O)C[C@H]2CC[C@@H]3[C@H](COC[C@@H](O)CN3C(=O)Nc3ccc(C(F)(F)F)cc3)O2)c1", "relative growth": "inactive: 0.952"}, {"smiles": "COc1ccc(NC(=O)N(C)C[C@@H]2OCCCC[C@H](C)Oc3ccc(NS(=O)(=O)c4ccc(F)cc4)cc3C(=O)N([C@@H](C)CO)C[C@@H]2C)cc1", "relative growth": "inactive: 1.01"}, {"smiles": "C[C@H](CO)N1C[C@H](C)[C@H](CN(C)C(=O)c2cnccn2)Oc2ncc(/C=C/c3ccccc3)cc2C1=O", "relative growth": "inactive: 0.952"}, {"smiles": "C[C@@H]1CN([C@H](C)CO)C(=O)c2cc(NC(=O)CCCN(C)C)ccc2O[C@H]1CN(C)S(=O)(=O)c1ccc(Cl)cc1", "relative growth": "inactive: 0.995"}, {"smiles": "C[C@@H]1CN([C@@H](C)CO)C(=O)c2cccc(NC(=O)C3CC3)c2O[C@H]1CN(C)S(=O)(=O)c1ccccc1", "relative growth": "inactive: 0.994"}, {"smiles": "COCCN1CCN(C)C2(CCN(C(=O)c3csnn3)CC2)C1=O", "relative growth": "inactive: 0.933"}, {"smiles": "Cc1noc(C)c1S(=O)(=O)Nc1cccc2c1O[C@H](CN(C)C(=O)NC1CCCCC1)[C@H](C)CN([C@@H](C)CO)C2=O", "relative growth": "inactive: 1.01"}, {"smiles": "C[C@@H]1CN([C@H](C)CO)C(=O)Cc2cc(NC(=O)Cc3ccccc3)ccc2O[C@@H]1CN(C)C(=O)Nc1ccc(C(F)(F)F)cc1", "relative growth": "inactive: 1"}, {"smiles": "Cc1ccc(-c2ccc3c(c2)O[C@@H](CN(C)Cc2cncnc2)[C@@H](C)CN([C@H](C)CO)S3(=O)=O)cc1", "relative growth": "inactive: 1.03"}, {"smiles": "Cc1noc(C)c1NC(=O)Nc1ccc2c(c1)CC(=O)N([C@@H](C)CO)C[C@H](C)[C@@H](CN(C)S(=O)(=O)c1cn(C)cn1)O2", "relative growth": "inactive: 1"}, {"smiles": "C[C@@H]1CN([C@H](C)CO)C(=O)CCCn2cc(nn2)CO[C@@H]1CN(C)S(=O)(=O)c1ccc(Oc2ccccc2)cc1", "relative growth": "inactive: 0.995"}, {"smiles": "C[C@H]1CN([C@@H](C)CO)S(=O)(=O)c2ccc(C#CC3CC3)cc2O[C@@H]1CN(C)C(=O)Cc1ccncc1", "relative growth": "inactive: 0.995"}, {"smiles": "Nc1ncnc2c1ncn2[C@@H]1O[C@H](COP(=O)(O)OP(=O)(O)OP(=O)(O)OP(=O)(O)OC[C@H]2O[C@@H](n3cnc4c(N)ncnc43)[C@H](O)[C@@H]2O)[C@@H](O)[C@H]1O", "relative growth": "inactive: 0.998"}, {"smiles": "CC(=O)OC[C@@H](OC(C)=O)[C@H](OC(C)=O)[C@H](OC(C)=O)[C@H](OC(C)=O)[C@@H](COC(C)=O)OC(C)=O", "relative growth": "inactive: 0.892"}, {"smiles": "C(=N\\c1ccccc1)/c1ccccc1", "relative growth": "inactive: 0.988"}, {"smiles": "CC(C)N(C)C(=O)c1cccc(NC(=O)c2ccncc2)c1OCCCN(C)Cc1ccc(Cl)cc1", "relative growth": "inactive: 1.01"}, {"smiles": "Cc1ccc(S(=O)(=O)N(C)C[C@@H]2Oc3cc(C#Cc4ccncc4)ccc3S(=O)(=O)N([C@H](C)CO)C[C@@H]2C)cc1", "relative growth": "inactive: 1"}, {"smiles": "CC(C)NC(=O)N(C)C[C@H]1Oc2ccc(NC(=O)CCN3CCOCC3)cc2C(=O)N([C@@H](C)CO)C[C@H]1C", "relative growth": "inactive: 0.984"}, {"smiles": "C[C@@H]1CN([C@@H](C)CO)C(=O)c2cccc(NC(=O)c3nc4ccccc4s3)c2O[C@@H]1CN(C)S(C)(=O)=O", "relative growth": "inactive: 0.995"}, {"smiles": "C[C@@H]1CCCCO[C@H](CN(C)S(=O)(=O)c2ccccc2)[C@@H](C)CN([C@H](C)CO)C(=O)c2cc(NC(=O)NC3CCCCC3)ccc2O1", "relative growth": "inactive: 1"}, {"smiles": "CCC[C@@H](O)C#Cc1cnc2c(c1)C(=O)N([C@H](C)CO)C[C@H](C)[C@H](CN(C)S(=O)(=O)c1ccc(C#N)cc1)O2", "relative growth": "inactive: 0.986"}, {"smiles": "S=C1C=C(N2CCCCC2)C[C@H](c2ccc(Cl)cc2)S1", "relative growth": "inactive: 0.944"}, {"smiles": "C[C@@H]1CCCCO[C@H](CN(C)C(=O)Nc2ccc(C(F)(F)F)cc2)[C@@H](C)CN([C@H](C)CO)C(=O)c2cc(NC(=O)Nc3cccc4ccccc34)ccc2O1", "relative growth": "inactive: 0.942"}, {"smiles": "CC(C)C#Cc1cnc2c(c1)C(=O)N([C@H](C)CO)C[C@H](C)[C@@H](CN(C)S(=O)(=O)c1cn(C)cn1)O2", "relative growth": "inactive: 1.01"}, {"smiles": "CC(C)(Sc1ccc(CCN(CCCCC2CCCCC2)C(=O)NC2CCCCC2)cc1)C(=O)O", "relative growth": "inactive: 0.893"}, {"smiles": "COc1ccc(NC(=O)Nc2ccc3c(c2)CC(=O)N([C@@H](C)CO)C[C@@H](C)[C@H](CN(C)CC2CCCCC2)O3)cc1", "relative growth": "inactive: 0.996"}, {"smiles": "O=C(C[C@H]1CC[C@H]2[C@@H](COC[C@@H](O)CN2S(=O)(=O)c2ccc(Cl)cc2)O1)N[C@@H]1CCN(Cc2ccccc2)C1", "relative growth": "inactive: 0.984"}, {"smiles": "Cc1ccc(S(=O)(=O)N(C)C[C@@H]2Oc3ccc(NC(=O)c4ccncc4)cc3C(=O)N([C@@H](C)CO)C[C@H]2C)cc1", "relative growth": "inactive: 1.02"}, {"smiles": "CCC(=O)O.[NaH]", "relative growth": "inactive: 0.978"}, {"smiles": "COc1ccc(CN(C)C[C@@H]2OCCCC[C@@H](C)Oc3ccc(NC(=O)c4ccccc4)cc3C(=O)N([C@@H](C)CO)C[C@H]2C)cc1", "relative growth": "inactive: 1.01"}, {"smiles": "C[C@H](CO)N1C[C@H](C)[C@H](CN(C)S(=O)(=O)c2cn(C)cn2)Oc2ncc(-c3cc4ccccc4o3)cc2C1=O", "relative growth": "inactive: 1.03"}]}]}
